# Hit rate of the full screen: of about 370,000 compounds, about 150 (0.041%) were called active. The inconclusive results got no clear call from the source; some entries with a clear call stand among them for comparison. Calls follow the shape of the dose curve; as a rule, active = well fitted inhibition curve with a large enough effect; inconclusive = small, poorly fitted or top-dose-only effect; inactive = flat fitted curve, though single readings scatter. No potency is given beside an inconclusive call; the fits are too rough.
# Biological target: Beta-lactamase (Escherichia coli (strain K12)) (UniProt P00811)
# Sequence of UniProt P00811 (P00811 whole entry, looked up): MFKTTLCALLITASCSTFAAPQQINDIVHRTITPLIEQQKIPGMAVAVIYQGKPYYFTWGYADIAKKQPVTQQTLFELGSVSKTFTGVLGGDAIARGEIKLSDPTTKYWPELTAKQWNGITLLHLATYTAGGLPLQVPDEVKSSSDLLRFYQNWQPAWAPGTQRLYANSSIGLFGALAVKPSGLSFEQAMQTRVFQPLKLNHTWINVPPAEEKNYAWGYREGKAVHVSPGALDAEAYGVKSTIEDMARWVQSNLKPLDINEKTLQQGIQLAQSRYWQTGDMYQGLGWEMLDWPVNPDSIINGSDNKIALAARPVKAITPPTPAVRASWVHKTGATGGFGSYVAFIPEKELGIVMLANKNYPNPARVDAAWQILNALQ
# Assay: qHTS Inhibitors of AmpC Beta-Lactamase (assay with detergent); also: nearly all actives have a fitted effect of over 25% in size;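 as to activity change, negative = inhibition: 0% = no-compound wells and -100% = no-enzyme wells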
# Conditions: AmpC hydrolysis of nitrocefin, absorbance 480 nm, 0.01% Triton; activity change, negative = inhibition: at 114 µM (top of the series)
# Method in brief: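 AmpC (5.3 nM in the dispensed reagent) in 20 mM phosphate pH 7.0 with 0.01% (detergent screen) or 0.0001% Triton X-100 was preincubated with compounds for 15 min at room temperature. Nitrocefin was then added from an 800 uM solution, and hydrolysis was followed at 480 nm.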
# Potency is read from the fitted curve at half-maximal effect; tags tell the direction and shape of the fitted curve.
SMILES,Potency,"activity change, negative = inhibition"
COC(=O)C1CCN(c2cc(=O)n(-c3ccc(OC)cc3)c(=O)[nH]2)CC1,"inconclusive [inhibitor, full curve, poor fit]",
O=P(c1ccccc1)(c1ccccc1)N1CCCCC1,"inconclusive [inhibitor, full curve, poor fit]",
COc1ccccc1CN1CCCC(N2CCN(c3ccccc3OC)CC2)C1 (configuration not stated),"inconclusive [inhibitor, partial curve, poor fit]",
NS(=O)(=O)c1cccc2c1c([N+](=O)[O-])cc1nc(O)c(O)nc12,"inconclusive [inhibitor, full curve, poor fit]",
CC(C)C(NC(=O)c1ccccc1)C(=O)OCC(=O)N1CCN(c2ccccc2)CC1 (configuration not stated),"inconclusive [inhibitor, full curve, poor fit]",
CCc1cc(=O)oc2cc(C)c(CN3CCCCC3)c(O)c12,"inconclusive [inhibitor, full curve, poor fit]",
O=C(CCl)c1ccc2[nH]c(=O)oc2c1,,inactive: -4.5%
COc1cccc(N2CCN(C(=O)CN3C(=O)NC(C)(c4ccc5ccccc5c4)C3=O)CC2)c1 (configuration not stated),,inactive: -7.44%
OCCN1CCN(CC#CCn2c3ccccc3c3ccccc32)CC1,"inconclusive [inhibitor, partial curve, poor fit]",
COc1ccc(C/C(C)=N/NC(=S)Nc2ccc(C(C)C)cc2)cc1,"inconclusive [inhibitor, partial curve]",
CCc1ccc(NC(=O)CSC2=Nc3ccccc3C3=NC(CC(=O)NCc4ccc5c(c4)OCO5)C(=O)N23)cc1 (configuration not stated),,inactive: 6.07%
Cc1nc(/N=C(\N)NC(=O)N2c3ccccc3Sc3ccccc32)nc2ccccc12,"inconclusive [inhibitor, full curve, poor fit]",
CSCC[C@H](NC(=O)OC(C)(C)C)c1nnc(SCC=C(C)C)o1,"inconclusive [inhibitor, partial curve]",
Cc1ccc(S(=O)(=O)NCCCn2ccnc2)cc1,"inconclusive [inhibitor, full curve, poor fit]",
CCOc1cccc(NC(=O)C2CC(=O)NC(=Nc3ccccc3)S2)c1 (configuration not stated),"inconclusive [inhibitor, full curve, poor fit]",
O=C(O)c1ccc(NC(=S)NCc2ccccc2)cc1,"inconclusive [inhibitor, partial curve, poor fit]",
CCSc1nc2c([nH]c3ccccc32)c(=O)n1-c1ccc(OC)cc1,,inactive: 6.08%
CC(C)C(=O)Nc1ccc(NC(=O)c2ccc([N+](=O)[O-])cc2Cl)cc1,"inconclusive [inhibitor, full curve, poor fit]",
CCOC(=O)c1cc(C(=O)OCC)c2ccccn2c1=O,"inconclusive [inhibitor, partial curve, poor fit]",
O=C(c1cnn2c(C(F)F)cc(-c3ccccc3)nc12)N1CCOCC1,"inconclusive [inhibitor, partial curve, poor fit]",
Cc1cc[n+](Cc2ccccc2)cc1,,inactive: -8.1%
COc1ccc(Cn2c(=O)[nH]c3cc(C(=O)N4CCN(c5ccc(OC)cc5)CC4)ccc3c2=O)cc1,,inactive: 6.57%
CCCCN(Cc1nc2ccccc2c(=O)[nH]1)C(=O)COc1ccc(F)cc1Cl,,inactive: -12.6%

SMILES,Potency,"activity change, negative = inhibition"
COc1ccc(N2C(=O)CSC23C(=O)N2CCCc4cccc3c42)cc1 (configuration not stated),"inconclusive [inhibitor, partial curve, poor fit]",
CCc1ccc(CNCCSc2nnnn2C)cc1,"inconclusive [inhibitor, full curve, poor fit]",
Cc1ccc(-c2nc3ccccc3c(=O)n2-c2ccncc2)cc1,"inconclusive [inhibitor, single point]",
O=C(Nc1cccnc1Cl)c1ccc(Cl)cc1,,inactive: -0.114%
CCC(COC)NC(=O)CCc1nnc(Cc2c[nH]c3ccccc23)o1 (configuration not stated),"inconclusive [inhibitor, partial curve, poor fit]",
COCCCNc1ncnc2c1cnn2-c1ccc(C)cc1C,"inconclusive [inhibitor, full curve, poor fit]",
CC(C(=O)Nc1ccccc1Sc1ccccc1)N(c1ccccc1)S(C)(=O)=O (configuration not stated),"inconclusive [inhibitor, full curve]",
COc1ccc2cc([C@H](C)C(=O)N(C)Cc3ccccc3N3CCCC3)ccc2c1,"inconclusive [inhibitor, full curve, poor fit]",
COc1ccc(OCc2nn3c(Cn4cnc5ccccc54)nnc3s2)cc1,"inconclusive [inhibitor, full curve, poor fit]",
O=[N+]([O-])c1ccc(Cn2cc(-c3cccc(C(F)(F)F)c3)nn2)cc1,"inconclusive [inhibitor, partial curve, poor fit]",
CCOC(=O)c1c(NC(=O)C2CCCCC2)sc2c1CCN(CC)C2,,inactive: -14.7%
COC(=O)c1ccc(Nc2ncnc3c2cnn3-c2cccc(C)c2)cc1,"inconclusive [inhibitor, partial curve, poor fit]",
CCCn1ncc(C(=O)N(C)C2CCCN(Cc3ccccc3F)C2)c1C (configuration not stated),"inconclusive [inhibitor, full curve, poor fit]",
O=C(CSc1ncnc2c1cnn2Cc1ccccc1)Nc1ccc2c(c1)OCCO2,"inconclusive [inhibitor, full curve]",
CC(Oc1ccc(Cl)cc1Cl)c1nc(-c2ccc(NC(=O)c3ccccn3)cc2)no1 (configuration not stated),,inactive: -7.2%
O=C(CSCc1cccc(Cl)c1)N/N=C/c1ccc(OCC(=O)N2CCCCC2)cc1,,inactive: -8.89%
Cc1ccc2[nH]c(=O)c(CN(CC3CCCO3)C(=O)c3ccco3)cc2c1 (configuration not stated),"inconclusive [inhibitor, full curve, poor fit]",
O=C(O)c1ccc2c(c1)C(=O)N([C@H](Cc1cccc3ccccc13)C(=O)O)C2=O,"inconclusive [inhibitor, full curve]",
COc1cc(Cl)c(C)cc1NC(=O)c1cnn(-c2ccc(C)cc2)c1-n1cccc1,,inactive: -6.66%
CC(=O)C(C(c1ccccc1)c1c[nH]c2ccccc12)[N+](=O)[O-] (configuration not stated),,inactive: 3.69%
COC(=O)c1cc(=O)n(Cc2ccc3c(c2)OCO3)c(=Nc2ccc(F)c(Cl)c2)s1,"inconclusive [inhibitor, full curve, poor fit]",
c1coc(-c2nc3ccccn3c2Nc2ccc3c(c2)OCCO3)c1,"inconclusive [inhibitor, single point]",
CCCCS(=O)(=O)N1C2=NC(C(=O)OC)=C(C(=O)OC)[C@@H]3N(C)c4ccc(OC)cc4[C@]23C[C@H]1C(=O)OC,,inactive: 0.9%

SMILES,Potency,"activity change, negative = inhibition"
COc1cc(/C=C2\CCC/C(=C\c3ccc(O)c(OC)c3)C2=O)ccc1O,"inconclusive [inhibitor, single point]",
O=C(CSc1ncccc1-c1nc2ccccc2[nH]1)N1CCc2ccccc21,"inconclusive [inhibitor, single point]",
CN(C1CCCCC1)S(=O)(=O)c1cc2c3c(c1)CCN3C(=O)CC2,"inconclusive [inhibitor, partial curve, poor fit]",
Cn1ccnc1SCC(=O)Nc1ccc(Cl)cn1,,inactive: -6.28%
CSc1nc2[nH]ncc2c(=O)[nH]1,"inconclusive [inhibitor, partial curve, poor fit]",
CCN(CC(=O)Nc1ccc2c(c1)OCCO2)Cc1cc(=O)oc2c(C)c(C)ccc12,"inconclusive [inhibitor, partial curve, poor fit]",
CN(C)C=NCCn1c(N2CCOCC2)nc2c1c(=O)n(C)c(=O)n2C,"inconclusive [inhibitor, full curve]",
Cc1nc(-c2ccc(Cl)cc2)sc1C1(C)CC(c2cccc(Cl)c2)=NO1 (configuration not stated),,inactive: 3.48%
OCC[C@H]1C[C@@H](O)[C@H](O)[C@]2(CCCc3ccccc3O2)O1,"inconclusive [inhibitor, partial curve, poor fit]",
CCOc1c2ccc(C(=O)NCc3ccc4c(c3)OCO4)cc2nn1CC,"inconclusive [inhibitor, single point]",
CC(=O)CSc1ncnc2c1oc1ccccc12,"inconclusive [inhibitor, full curve, poor fit]",
COc1ccc(/C=N/N(C)C2=NS(=O)(=O)c3ccccc32)cc1,,inactive: -10.6%
COc1ccc2cc(-c3ccccc3)ncc2c1,,inactive: -9.01%
CNC(=O)CSc1nnc(-c2cccs2)o1,"inconclusive [inhibitor, full curve]",
O=C(CSCC(=O)N1CCCCC1)Nc1nc(-c2ccccc2)c(-c2ccccc2)s1,"inconclusive [inhibitor, partial curve, poor fit]",
Cc1ncc([N+](=O)[O-])n1CC(O)CCl (configuration not stated),"inconclusive [inhibitor, single point]",
CCN(c1ccccc1)S(=O)(=O)c1cccc(C(=O)NCC(c2ccco2)N2CCCC2)c1 (configuration not stated),"inconclusive [inhibitor, partial curve, poor fit]",
COc1cc2oc(=O)c(CC(=O)N3CCCCC3)c(C)c2cc1OC,,inactive: -4.33%
O=C1C=C(c2ccc(Cl)cc2)OC2(CCCC2)O1,"inconclusive [inhibitor, full curve]",
CC(C)OC(=O)C(=O)NNc1ccccc1,,inactive: -6.11%
O=C(NC(=S)Nc1ccc(Cc2ccncc2)cc1)c1ccccc1Cl,,inactive: -5.65%

# From PubChem BioAssay AID485294 (National Center for Advancing Translational Sciences (NCATS), 2010)
